Inconclusive means that the source gave no clear call. Such entries were picked first, then a sample of the others. For some assays here: Potencies of inconclusive entries are left out as doubtful fits. The source made the active and inactive calls. Unless noted, the call rests on the fitted dose curve; in most records, active means well fitted curve in the direction sought with a large enough effect in the repeat runs; inconclusive means weak or mixed curves; inactive means no such curve, though single readings can be large; an effect the other way counts as inactive or inconclusive.
Assays:
[1] = biological target: Bile acid receptor (Homo sapiens) (UniProt Q96RI1); test: qHTS assay to identify small molecule antagonists of the farnesoid-X-receptor (FXR) signaling pathway (AID 743217; active means well fitted inhibition curve with a large enough effect in the signal ratio in the repeat runs, not every such curve was filed as active; inconclusive means weak or mixed curves, or effect the other way; inactive means no such curve, though single readings can be large or run the other way; the % refers to the signal ratio; further: on the % scale 0 is the no-effect control and ±100 the full control effect); conditions: HEK293T FXR-UAS-bla, beta-lactamase ratio, CDCA-stimulated, 16 h; activity change, negative = inhibition: at 62.6 µM (top of the series) unless noted
Outline: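 Quantitative HTS, beta-lactamase reporter format: FXR-UAS-bla HEK 293T cells co-treated 16 h at 37 °C with compounds and 50 uM final chenodeoxycholic acid, then read by B/G FRET fluorescence.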

[2] = qHTS assay to identify small molecule agonists of the hypoxia (HIF-1) signaling pathway - cell viability counter screen (AID 1224844; calls by dose curve; further: potency means the concentration at half of the fitted maximal effect; nearly all actives have a fitted effect of over 50% in size); conditions: HRE-bla ME-180 viability, CellTiter-Glo luminescence, 17 h; series mostly up to 76.8 µM
Outline: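 HRE-bla ME-180; 0.5% dFBS; cpd 17 h, 37C, 5% CO2; CellTiter-Glo lum., 30 min RT, post-FRET read, same wells.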

[3] = A CellTox Green Cytotoxicity Assay to monitor cytotoxicity in HEK293 cells - 16 hour (AID 1224888); conditions: CellTox Green fluorescence; series mostly up to 76.8 µM; further: nearly all actives have a fitted effect of over 35% in size; further: potency means the concentration at half of the fitted maximal effect
Outline: (§1)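 Tox21 screen in HEK293: membrane-impermeant cyanine dye fluoresces on binding dead-cell DNA; compound pinned 5 h post-seeding, plates held at 37 C, signal read repeatedly through 40 h.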

[4] = qHTS assay to identify small molecule antagonists of the androgen receptor (AR) signaling pathway using the MDA cell line in the presence of 0.5 nM R1881 - cell viability counter screen (AID 1259242); conditions: MDA-kb2 viability, CellTiter-Fluor protease fluorescence, 16 h; series mostly up to 92.4 µM; further: on the % scale 0 is the no-effect control and ±100 the full control effect; nearly all actives have a fitted effect of over 45% in size
Outline: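 Concentration-response screen of compounds for toxicity in MDA-kb2 reporter cells: 16 hr at 37C with 0.5 nM R1881, endpoint live-cell protease fluorescence measured in the reporter wells.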

[5] = qHTS assay to identify small molecule antagonists of the estrogen receptor beta (ER-beta) signaling pathway - cell viability counter screen (AID 1259382); conditions: ER-beta-UAS-bla HEK293T viability, CellTiter-Glo luminescence, 16 h; series mostly up to 92.4 µM; further: nearly all actives have a fitted effect of over 55% in size; further: potency means the concentration at half of the fitted maximal effect
Outline: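 Readout: luminescence, CellTiter-Glo, same wells as bla assay. System: ER-beta-UAS-bla GripTite HEK293T, 2% charcoal-stripped FBS. Exposure: compounds plus 1nM 17-beta-estradiol, 16 hr, 37C.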

[6] = A CellTox Green Cytotoxicity Assay to monitor cytotoxicity in HEK293 cells - 32 hour (AID 1224881); conditions: CellTox Green fluorescence; series mostly up to 76.8 µM; further: on the % scale 0 is the no-effect control and ±100 the full control effect; nearly all actives have a fitted effect of over 40% in size
Outline: as §1

[7] = biological target: Vitamin D3 receptor (Homo sapiens) (UniProt P11473); test: qHTS assay to identify small molecule agonists of the vitamin D receptor (VDR) signaling pathway (AID 743222; calls by dose curve; further: on the % scale 0 is the no-effect control and ±100 the full control effect); conditions: HEK293T VDR-UAS-bla, beta-lactamase FRET ratio, 16 h; activation: at 63.5 µM (top of the series) unless noted
Outline: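 Using LiveBLAzer B/G FRET detection, agonism was scored in VDR-bla cells exposed overnight (16 h, 37C) to DMSO-dissolved compounds; substrate incubation was 2 h at room temperature.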

[8] = biological target: Bile acid receptor (Homo sapiens) (UniProt Q96RI1); test: qHTS assay to identify small molecule agonists of the farnesoid-X-receptor (FXR) signaling pathway (AID 743220; active means well fitted activation curve with a large enough effect in the signal ratio in the repeat runs, not every such curve was filed as active; inconclusive means weak or mixed curves, or effect the other way; the % refers to the signal ratio; further: potency means the concentration at half of the fitted maximal effect); conditions: HEK293T FXR-UAS-bla, beta-lactamase FRET ratio, 16 h; activation: at 62.6 µM (top of the series)
Outline: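 FXR-UAS-bla HEK 293T cells carrying a UAS-driven beta-lactamase reporter were plated for 5 h at 37C/5% CO2, then exposed to DMSO-dissolved Tox21 10K compounds for 16 h at 37C. A LiveBLAzer B/G FRET substrate was loaded for 2 h at room temperature before fluorescence reading.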

[9] = A CellTox Green Cytotoxicity Assay to monitor cytotoxicity in HEK293 cells - 40 hour (AID 1224871); conditions: CellTox Green fluorescence; series mostly up to 76.8 µM; further: nearly all actives have a fitted effect of over 45% in size; further: potency means the concentration at half of the fitted maximal effect
Outline: as §1

[10] = qHTS assay for small molecules that induce genotoxicity in human embryonic kidney cells expressing luciferase-tagged ATAD5 - cell viability (AID 651634; calls by dose curve; further: nearly all actives have a fitted effect of over 25% in size; further: potency means the concentration at half of the fitted maximal effect); conditions: HEK293T ATAD5-luc cells viability, CellTiter-Fluor, 15.5 h; series mostly up to 83.3 µM
Outline: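 15.5 hr compound or vehicle exposure of HEK293T cells expressing luciferase-tagged ATAD5 at 37C; live-cell protease activity is read by fluorescence after 30 min of CellTiter-Fluor.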

[11] = biological target: Glucocorticoid receptor (Homo sapiens) (UniProt P04150); test: qHTS assay to identify small molecule agonists of the glucocorticoid receptor (GR) signaling pathway (AID 720691; active means well fitted activation curve with a large enough effect in the signal ratio in the repeat runs, not every such curve was filed as active; inconclusive means weak or mixed curves, or effect the other way; inactive means no such curve, though single readings can be large or run the other way; the % refers to the signal ratio; further: on the % scale 0 is the no-effect control and ±100 the full control effect); conditions: GR-bla HeLa, beta-lactamase reporter ratio, 18 h; activation: at 62.4 µM (top of the series) unless noted
Outline: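 Measures GR pathway activation through a GRE-beta-lactamase reporter stably integrated in HeLa cells, with 18 h compound treatment at 37 C and fluorescence detection using a FRET substrate.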

[12] = qHTS RealTime-Glo MT Cell Viability Assay in HEK293 cells - 0 hour (AID 1224880); conditions: RealTime-Glo luminescence; series mostly up to 76.8 µM; further: nearly all actives have a fitted effect of over 45% in size; further: potency means the concentration at half of the fitted maximal effect
Outline: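 HEK293 + NanoLuc + prosubstrate, 600 cells/well; 5 h, 37 C/5% CO2; compound 23 nL in DMSO by pintool; 37 C; luminescence read at 0, 8, 16, 24, 32 and 40 h time points.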

[13] = biological target: Androgen receptor (Homo sapiens) (UniProt P10275); test: qHTS assay to identify small molecule agonists of the androgen receptor (AR) signaling pathway (AID 743036; active means well fitted activation curve with a large enough effect in the signal ratio in the repeat runs, with a control signal flat, not every such curve was filed as active; inconclusive means weak or mixed curves, or effect the other way; inactive means no such curve, though single readings can be large or run the other way; the % refers to the signal ratio; further: on the % scale 0 is the no-effect control and ±100 the full control effect); conditions: HEK293 AR-UAS-bla GripTite, beta-lactamase FRET ratio, 16 h; activation: at 62.4 µM (top of the series) unless noted
Outline: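 AR-UAS-bla HEK293 cells, plated 4 h before dosing, were treated with compound for 16 h at 37C. beta-Lactamase reporter read after 2 h with LiveBLAzer B/G FRET substrate at room temperature.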

[14] = qHTS assay to identify small molecule antagonists of the androgen receptor (AR) signaling pathway using the MDA cell line - cell viability counter screen (AID 743041; further: nearly all actives have a fitted effect of over 45% in size; further: potency means the concentration at half of the fitted maximal effect); conditions: MDA-kb2 viability, CellTiter-Fluor, 16 h, cells co-treated with R1881 androgen agonist; viability change, negative = cytotoxic: at 70.3 µM (top of the series)
Outline: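 Viability read by CellTiter-Fluor fluorescence in the same wells as the antagonist screen, added after 15.5 h of a 16 h, 37C exposure. Human breast carcinoma MDA-kb2 AR-luc cells, compounds co-dosed with agonist R1881.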

[15] = qHTS RealTime-Glo MT Cell Viability Assay in HepG2 cells - 0 hour (AID 1224889); conditions: RealTime-Glo luminescence; series mostly up to 76.8 µM; further: potency means the concentration at half of the fitted maximal effect; nearly all actives have a fitted effect of over 50% in size
Outline: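 Viability was tracked continuously by NanoLuc luminescence from prosubstrate reduced by living HepG2 cells, at successive time points over 40 h of compound exposure. Cells with reagent were preincubated 5 h at 37 °C before compound addition.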

[16] = A CellTox Green Cytotoxicity Assay to monitor cytotoxicity in HEK293 cells - 24 hour (AID 1224875); conditions: CellTox Green fluorescence; series mostly up to 76.8 µM
Outline: as §1

[17] = biological target: Estrogen receptor (Homo sapiens) (UniProt P03372); test: qHTS assay to identify small molecule antagonists of the estrogen receptor alpha (ER-alpha) signaling pathway using the BG1 cell line in the presence of 0.1 nM 17-beta-estradiol (AID 1259244); conditions: VM7Luc4E2 (BG1) ERE-luciferase, antagonist mode, 0.1 nM E2, 22 h; series mostly up to 92.4 µM; further: potency means the concentration at half of the fitted maximal effect; nearly all actives have a fitted effect of over 50% in size
Outline: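 Compounds were tested against 0.1 nM (final) 17beta-estradiol in VM7Luc4E2 cells, which express full-length ER-alpha and an ERE-luciferase reporter; luminescence was recorded following 22 h exposure.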

[18] = qHTS assay to identify small molecule antagonists of the estrogen related receptor (ERR) signaling pathway from Tox21 library (AID 1224848); conditions: ERR reporter cell line, luciferase antagonist mode, 18 h; series mostly up to 92.4 µM; further: potency means the concentration at half of the fitted maximal effect; nearly all actives have a fitted effect of over 50% in size
Outline: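 Luciferase luminescence (ONE-Glo, 30 min room temperature) was the read-out. Cells of the NTP-supplied ERR line, 2,000 per well, were given 6 h at 37 C before compound addition in DMSO and 18 h exposure at 37 C.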

[19] = A CellTox Green Cytotoxicity Assay to monitor cytotoxicity in HepG2 cells - 8 hour (AID 1224890); conditions: CellTox Green fluorescence; series mostly up to 76.8 µM
Outline: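 Measurements at 0, 8, 16, 24, 32 and 40 h of treatment captured CellTox Green fluorescence in HepG2 cells that had been co-plated with reagent and preincubated 5 h at 37 C/5% CO2.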
Tags describe the fitted curve by direction and shape or compound fluorescence and quenching.

Sequence of UniProt Q96RI1 (Q96RI1 whole entry, looked up): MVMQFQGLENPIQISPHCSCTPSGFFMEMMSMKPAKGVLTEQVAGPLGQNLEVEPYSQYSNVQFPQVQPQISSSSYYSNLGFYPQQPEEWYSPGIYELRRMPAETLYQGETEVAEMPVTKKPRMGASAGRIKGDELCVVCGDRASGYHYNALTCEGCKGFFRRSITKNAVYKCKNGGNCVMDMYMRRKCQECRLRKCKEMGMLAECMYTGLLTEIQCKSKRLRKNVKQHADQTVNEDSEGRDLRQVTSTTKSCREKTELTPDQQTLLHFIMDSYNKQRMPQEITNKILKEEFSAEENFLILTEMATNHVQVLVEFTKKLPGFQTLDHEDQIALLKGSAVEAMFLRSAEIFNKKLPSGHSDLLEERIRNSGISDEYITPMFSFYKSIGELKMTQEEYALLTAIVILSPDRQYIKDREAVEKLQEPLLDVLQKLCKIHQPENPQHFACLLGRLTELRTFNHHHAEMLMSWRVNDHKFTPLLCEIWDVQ
Sequence of UniProt P11473 (P11473 whole entry, looked up): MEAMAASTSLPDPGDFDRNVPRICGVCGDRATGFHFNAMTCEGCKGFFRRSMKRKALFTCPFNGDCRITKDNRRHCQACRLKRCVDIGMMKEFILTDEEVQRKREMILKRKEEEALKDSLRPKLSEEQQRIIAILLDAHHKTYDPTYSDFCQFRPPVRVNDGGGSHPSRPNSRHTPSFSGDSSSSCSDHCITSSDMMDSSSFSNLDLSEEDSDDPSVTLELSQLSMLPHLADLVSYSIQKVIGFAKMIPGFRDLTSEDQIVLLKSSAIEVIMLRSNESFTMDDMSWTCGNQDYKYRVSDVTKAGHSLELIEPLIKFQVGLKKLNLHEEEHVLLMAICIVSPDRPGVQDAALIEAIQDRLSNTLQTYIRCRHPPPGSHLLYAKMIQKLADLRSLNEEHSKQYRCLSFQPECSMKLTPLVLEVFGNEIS
Sequence of UniProt P03372 (P03372 whole entry, looked up): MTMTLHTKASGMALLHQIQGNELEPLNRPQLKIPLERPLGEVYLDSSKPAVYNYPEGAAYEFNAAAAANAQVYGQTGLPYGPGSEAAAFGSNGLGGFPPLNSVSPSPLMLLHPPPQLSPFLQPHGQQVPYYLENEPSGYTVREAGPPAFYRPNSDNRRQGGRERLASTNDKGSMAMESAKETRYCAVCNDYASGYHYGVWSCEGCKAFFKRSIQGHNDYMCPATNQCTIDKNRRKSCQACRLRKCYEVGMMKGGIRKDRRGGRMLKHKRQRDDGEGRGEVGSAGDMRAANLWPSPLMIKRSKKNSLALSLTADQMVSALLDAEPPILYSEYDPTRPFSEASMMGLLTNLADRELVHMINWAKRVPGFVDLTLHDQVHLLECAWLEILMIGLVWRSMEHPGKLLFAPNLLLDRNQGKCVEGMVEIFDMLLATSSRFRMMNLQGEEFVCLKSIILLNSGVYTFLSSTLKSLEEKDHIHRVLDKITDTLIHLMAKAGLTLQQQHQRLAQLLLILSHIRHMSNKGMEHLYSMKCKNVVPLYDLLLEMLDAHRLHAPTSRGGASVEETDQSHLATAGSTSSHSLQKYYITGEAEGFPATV
Sequence of UniProt P10275 (P10275 whole entry, looked up): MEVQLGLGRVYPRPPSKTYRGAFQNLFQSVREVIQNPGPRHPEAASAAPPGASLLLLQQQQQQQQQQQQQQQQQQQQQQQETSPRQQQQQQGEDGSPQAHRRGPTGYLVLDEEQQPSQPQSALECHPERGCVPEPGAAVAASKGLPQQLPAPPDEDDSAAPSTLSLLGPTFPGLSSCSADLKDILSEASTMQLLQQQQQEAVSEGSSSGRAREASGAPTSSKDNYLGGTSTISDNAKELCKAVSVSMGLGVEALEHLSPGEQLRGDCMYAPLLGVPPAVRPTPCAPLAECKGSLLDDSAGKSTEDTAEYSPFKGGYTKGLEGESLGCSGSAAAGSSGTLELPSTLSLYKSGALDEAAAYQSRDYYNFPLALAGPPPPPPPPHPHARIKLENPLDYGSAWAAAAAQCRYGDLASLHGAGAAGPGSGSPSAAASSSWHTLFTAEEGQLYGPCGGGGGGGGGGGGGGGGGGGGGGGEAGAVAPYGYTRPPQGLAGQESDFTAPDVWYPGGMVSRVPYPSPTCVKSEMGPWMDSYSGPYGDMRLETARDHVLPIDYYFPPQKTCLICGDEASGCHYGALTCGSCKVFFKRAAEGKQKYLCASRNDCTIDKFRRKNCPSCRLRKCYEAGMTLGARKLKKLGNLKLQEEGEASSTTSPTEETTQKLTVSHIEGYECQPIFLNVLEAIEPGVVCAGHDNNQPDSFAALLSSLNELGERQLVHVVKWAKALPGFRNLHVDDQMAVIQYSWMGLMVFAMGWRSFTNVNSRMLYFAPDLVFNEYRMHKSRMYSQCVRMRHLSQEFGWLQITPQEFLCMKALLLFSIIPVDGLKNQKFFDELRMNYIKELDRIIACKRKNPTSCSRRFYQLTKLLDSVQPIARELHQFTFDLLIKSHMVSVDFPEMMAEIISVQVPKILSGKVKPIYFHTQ
Sequence of UniProt P04150 (P04150 whole entry, looked up): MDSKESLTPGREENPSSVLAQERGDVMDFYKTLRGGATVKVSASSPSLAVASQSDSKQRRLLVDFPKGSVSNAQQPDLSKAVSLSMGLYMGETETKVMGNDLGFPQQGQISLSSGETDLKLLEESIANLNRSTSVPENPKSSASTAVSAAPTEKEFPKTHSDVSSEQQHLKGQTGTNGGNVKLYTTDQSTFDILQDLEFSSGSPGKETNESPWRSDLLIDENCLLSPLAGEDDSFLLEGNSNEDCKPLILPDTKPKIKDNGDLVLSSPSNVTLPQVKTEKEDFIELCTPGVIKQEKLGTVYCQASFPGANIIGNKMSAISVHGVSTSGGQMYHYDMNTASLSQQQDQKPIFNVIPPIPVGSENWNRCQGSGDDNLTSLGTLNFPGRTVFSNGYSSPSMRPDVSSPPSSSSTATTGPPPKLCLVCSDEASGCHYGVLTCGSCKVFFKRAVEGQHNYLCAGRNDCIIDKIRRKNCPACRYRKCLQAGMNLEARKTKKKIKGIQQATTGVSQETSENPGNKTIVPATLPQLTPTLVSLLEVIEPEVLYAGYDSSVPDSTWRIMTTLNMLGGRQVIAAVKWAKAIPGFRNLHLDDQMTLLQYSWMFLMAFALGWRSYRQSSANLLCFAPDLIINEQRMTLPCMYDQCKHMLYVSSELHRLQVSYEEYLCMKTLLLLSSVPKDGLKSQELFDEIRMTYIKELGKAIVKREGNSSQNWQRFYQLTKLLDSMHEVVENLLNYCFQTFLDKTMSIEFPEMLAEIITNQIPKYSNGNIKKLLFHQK

CCCCCCCCOC(=O)c1ccc(C(=O)OCCCCCCCC)c(C(=O)OCCCCCCCC)c1
Potency [1]: inactive
Potency [2]: inconclusive [cytotoxic, partial curve, poor fit]

CCCN1CCC[C@@H]2Cc3nc(N)ncc3C[C@H]21
Potency [3]: active: 19 µM
Potency [4]: inactive
Potency [5]: inactive

CCCCCCCCBr
Potency [1]: inactive

CCOC(C(=O)OCCN(C)C)(c1ccccc1)c1ccccc1
Potency [6]: inactive

C[C@]12CC[C@H]3[C@@H](CCC4=CC(=O)CC[C@@H]43)[C@@H]1CC[C@@H]2OC(=O)CCC1CCCCC1
Potency [7]: inactive

CCOP(=S)(OCC)Oc1cc(-c2ccccc2)on1
Potency [8]: inconclusive [rising, full curve, poor fit]
Potency [4]: inactive

CNC(=O)Oc1cc(C)cc(C(C)C)c1
Potency [9]: inactive

Nc1ccc(Cc2ccc(N)cc2)cc1
Potency [7]: inactive

COc1ccc2c(C(=O)c3ccc(Cl)cc3)c(C)n(CC(=O)O)c2c1
Potency [10]: inactive
activation [11]: inconclusive: -2.33%
Potency [12]: inactive

COc1ccc2c(c1OC)C(=O)O[C@H]2[C@@H]1c2cc3c(cc2CCN1C)OCO3
Potency [13]: inactive

CCCCOC(=O)c1ccccc1C(=O)O
Potency [10]: inconclusive [falling, single point]
activation [13]: inconclusive: -2.71%
Potency [2]: inconclusive [cytotoxic, partial curve, poor fit]

CNC(=O)Oc1cccc(N=CN(C)C)c1
Potency [14]: inconclusive [cytotoxic, single point]
Potency [8]: inconclusive [rising, full curve, poor fit]

CCOC(=O)C(c1c(O)c2ccccc2oc1=O)c1c(O)c2ccccc2oc1=O
Potency [2]: inconclusive [cytotoxic, partial curve]
Potency [12]: inconclusive [falling, partial curve]
Potency [15]: inconclusive [cytotoxic, partial curve]
Potency [5]: inconclusive [cytotoxic, partial curve, poor fit]

COc1cc(OC)nc(Sc2cccc(Cl)c2C(=O)O)n1
Potency [16]: inactive

CCOS(C)(=O)=O
Potency [3]: inactive

COc1ccc2c(c1OC)CN1CCc3cc4c(cc3C1C2)OCO4 (stereo unspecified)
Potency [10]: inactive
Potency [17]: inconclusive [inhibitor, single point]

Fc1ccc(C2(Cn3cncn3)OC2c2ccccc2Cl)cc1 (stereo unspecified)
activation [8]: inconclusive: 6.38%
Potency [9]: inconclusive [activator, single point]
Potency [17]: inconclusive [inhibitor, single point]
Potency [5]: inconclusive [cytotoxic, partial curve, poor fit]

Cc1nc2ccccc2c(=O)n1-c1ccccc1Cl
Potency [14]: inactive
Potency [18]: inconclusive [inhibitor, partial curve]
Potency [15]: inconclusive [cytotoxic, partial curve, poor fit]

CN(C)NC(=O)CCC(=O)O
activation [7]: inconclusive: 10.5%
Potency [3]: inactive
Potency [19]: inactive

ClCc1cccnc1
Potency [14]: inactive

C=C(C)[C@@H]1CC=C(C=O)CC1
Potency [10]: inactive

Source: PubChem BioAssay (Tox21)
